This is an account of results in ChEMBL document CHEMBL4888484, “Replenishing the malaria drug discovery pipeline: Screening and hit evaluation of the MMV Hit Generation Library 1 (HGL1) against asexual blood stage Plasmodium falciparum ,using a nano luciferase reporter read-out” (2022).

Screen size: about 150,000 compounds; about 540 (0.36%) showed an effect of 50% or more. Some of the results follow.

The subject of this assay is Plasmodium falciparum. Put plainly: Primary screen in NF54 nanoGlo assay, in single point, at 2uM, 72h; a lower Z score goes with more inhibition. The assay is classed as functional, Erythrocyte. As to conditions: timepoint 72 hour.
Regarding `CCc1cnc(CNC(=O)c2ccc(C(C)(F)F)nc2)s1`, the “% Inhibition” value came out at 1% and the Z score is recorded as -0.07.
As for `Cc1cc(C)cc(-n2ncc3c(=O)n(C[C@H](O)COc4ccc(F)cc4)cnc32)c1`, the “% Inhibition” value was -9% and the Z score is 1.46.
Consider `N[C@H]1CCCC[C@@H]1NC(=O)N[C@H]1C[C@H](c2ccccc2F)C1`, for which the “% Inhibition” value was determined as 0% and the Z score was 0.
For `CC1CC(N2CCOC(Cn3cccn3)C2)C(=O)O1` (configuration not stated), the “% Inhibition” value is -8% and the Z score is recorded as 1.29.
On to `Cc1ccc(S(=O)(=O)N(c2cccc(C)c2)C2CCN(Cc3ccco3)CC2)cc1`, for which the “% Inhibition” value is listed as -8% and the Z score amounted to 1.04.
For the molecule `COc1cccc(Cc2nc(-c3nnn(Cc4ccc(F)cc4)c3C)no2)c1`, the “% Inhibition” value is recorded as -17% and the Z score was determined as 3.43.
With `c1cc(-c2noc(CNc3nc(C4CC4)ns3)n2)ccn1`, the “% Inhibition” value is given as -1% and the Z score worked out at 0.16.
As for `O=C(CC1(CN2Cc3ccccc3C2=O)CCCCC1)N1CCCCCC1`, the “% Inhibition” value was -5% and the Z score turned out to be 0.63.
Take `COc1ccc(NC2=NCCCC2)cc1`: the “% Inhibition” value was -27% and the Z score is on record as 3.18.
Turning to `CCCc1cc(OC(=O)c2ccccc2F)n(-c2cccc(F)c2)n1`, the “% Inhibition” value is listed as -7% and the Z score was determined as 0.74.
`FC(F)(F)[C@@H]1CN(c2cc(N3CCOCC3)ncn2)CCO1`: the “% Inhibition” value is given as -6% and the Z score was 1.27.
In the same order, the values of `O=C(Nc1ccc(Cl)c(C(F)(F)F)c1)C1=C(c2ccccc2)S(=O)(=O)CCO1` are 9% and -1.12.
Regarding `O=C(Nc1cc(F)ccc1F)N1Cc2cccn2-c2ccccc21`, the “% Inhibition” value is recorded as 6% and the Z score is -0.76.
On to `COCC1(C(=O)NC2(CO)CCCCC2)CCC1`, for which the “% Inhibition” value was -20% and the Z score is recorded as 1.89.
`COC(=O)c1sc(N2CCCCCC2)nc1N`: the “% Inhibition” value is -2% and the Z score stood at 0.21.
In the same order, the values of `NC(=O)COCCNC(=O)C1=CCCCCC1` are -7% and 1.14.
In the same order, the values of `C1CCC(c2noc(-c3onc4c3CCCC4)n2)CC1` are -3% and 0.41.
Take `COc1ccc(-c2nn(CCNC(=O)Nc3ccc(Cl)c(Cl)c3)c(=O)n2C2CC2)cc1`: the “% Inhibition” value is recorded as -7% and the Z score turned out to be 1.36.
Consider `O=C(COc1ccc(Cl)cc1)NCc1ccnc(N2CCCC2)n1`, for which the “% Inhibition” value is on record as -17% and the Z score is listed as 3.15.
For `Cc1ccc(S(=O)(=O)Oc2ccc(C)cc2-n2nc3ccccc3n2)cc1`, the “% Inhibition” value is -8% and the Z score is given as 1.09.
Turning to `O=C(C1CC=CCC1)N1CC2CC1CO2` (configuration not stated), the “% Inhibition” value was found to be 2% and the Z score is given as -0.33.
On to `O=C(NCc1ccccc1)c1cc(-c2ccccc2Cl)nn1-c1cccc(Cl)c1`, for which the “% Inhibition” value was -4% and the Z score worked out at 0.66.
Turning to `Cc1cnc(C2CCC2)n1[C@H]1CCN(C(=O)COc2ccc(F)cc2)C1`, the “% Inhibition” value is -17% and the Z score was found to be 2.18.
With `C[C@@H]1CC=CC[C@H]1C(=O)N[C@H]1CCS(=O)(=O)[C@H]1C`, the “% Inhibition” value came out at 1% and the Z score is given as -0.16.
Turning to `O=C(Nc1ncn(Cc2ccc(Cl)c(Cl)c2)n1)c1ccccc1Cl`, the “% Inhibition” value amounted to 28% and the Z score is listed as -3.78.
For the molecule `C[C@@H](C1CC1)N(C(=O)c1cnc(-c2ccccc2)nc1)C1CC1`, the “% Inhibition” value is 8% and the Z score is given as -1.04.
In the same order, the values of `CCCc1cc(CNCc2ccc(F)cc2OC)on1` are -16% and 1.76.
As to `OCCC[C@@H]1CN(Cc2cccc3nonc23)CC[C@@H]1N1CCOCC1`, the “% Inhibition” value is -8% and the Z score is 1.54.
On to `CC(O)C1CN(C(=O)Nc2ncc(C3CCCCC3)s2)CCO1` (configuration not stated), for which the “% Inhibition” value was found to be 31% and the Z score was -3.51.
For the molecule `N#Cc1ccc(C(=O)N(CCc2cccc(F)c2)C2CC2)nc1`, the “% Inhibition” value is recorded as -19% and the Z score is listed as 2.58.
In the same order, the values of `COc1cccc(C(=O)O[C@@H](C)C(C)(C)C#N)n1` are -1% and 0.09.
`CC(C)Cc1ccc(CN(C)C[C@H]2COCCO2)s1`: the “% Inhibition” value is given as -8% and the Z score was 1.74.
`Cc1cc(C(=O)NCCc2ccccc2)n2nc(-c3ccccc3)cc2n1`: the “% Inhibition” value is on record as 0% and the Z score was -0.07.
For `CCc1c(C)noc1NC(=O)CCc1cccnc1`, the “% Inhibition” value is recorded as -5% and the Z score is given as 0.64.
In the same order, the values of `O=C(N1CCOCC1)N1CCC[C@H](Cc2nc(-c3ccccc3F)no2)C1` are 11% and -1.48.
In the same order, the values of `CN(C[C@@]12CCC[C@@H]1OCC2)C(=O)NCc1nccs1` are -4% and 0.75.
In the same order, the values of `CC[C@H]1C(=O)NCCN1C(=O)c1cccc2ccccc12` are 1% and -0.07.
For `CC(C)(C)OC(=O)NCC1(CO)CC1`, the “% Inhibition” value was -2% and the Z score is on record as 0.22.
In the same order, the values of `CN(C)c1cccc(CCC(=O)N(CC#N)c2ccccc2)c1` are -3% and 0.28.
In the same order, the values of `CC(C)Oc1ccccc1NS(=O)(=O)N(C)C(C)C` are -8% and 0.95.
With `CC(C)c1nc(-c2cccc(N3CCNC3=O)c2)n(-c2cccnc2)n1`, the “% Inhibition” value is -8% and the Z score was 0.91.
As to `O=C(Nc1nc(N2CCOCC2)ns1)c1cc2ccccc2[nH]1`, the “% Inhibition” value is listed as -10% and the Z score came to 1.56.
In the same order, the values of `COc1ccc(Cl)cc1[C@H](C)NCC(C)(C)NS(C)(=O)=O` are -10% and 1.43.
`Cc1ccc(-n2nc(C)cc2NC(=O)[C@H]2OCCO[C@H]2C)nn1`: the “% Inhibition” value is -3% and the Z score amounted to 0.51.
`O=C(NCCN1CCOCC1)c1ccc(-c2c(F)cccc2F)s1`: the “% Inhibition” value is reported as -4% and the Z score came to 0.8.
Take `CC1CCCC(C)C1N(C)C(=O)CCN` (configuration not stated): the “% Inhibition” value is -13% and the Z score is 1.21.
With `Cc1cn2cc(C(=O)NCCc3nc4c(s3)CCC4)ccc2n1`, the “% Inhibition” value is given as -1% and the Z score came to 0.13.
As to `NC(=O)CCn1cc(-c2cc(F)cc3cccnc23)cn1`, the “% Inhibition” value is -12% and the Z score is reported as 2.22.
In the same order, the values of `Cc1ccc(CN2CCc3nc(N4CCCC4)ncc3C2)cc1C` are -8% and 1.05.
Take `CC(C)[C@H]1COC(=O)N1Cc1ccc(Cl)c(Cl)c1`: the “% Inhibition” value is reported as -11% and the Z score came to 1.57.
As to `Cc1noc2ncnc(N3CCn4nc(CCC(=O)NC5CC5)cc4C3)c12`, the “% Inhibition” value was -13% and the Z score is recorded as 1.83.
In the same order, the values of `CC(C)CN(Cc1ccsc1)C(=O)Cc1ccc(O)c(Cl)c1` are -10% and 0.95.
In the same order, the values of `COC(CS(=O)(=O)Nc1ncn(-c2ccc(F)cc2)n1)C1CCOC1` (configuration not stated) are -15% and 2.73.
Turning to `Cn1c(-c2nc(-c3ccncc3)nn2CC(F)(F)F)cc(=O)n(C)c1=O`, the “% Inhibition” value is recorded as -23% and the Z score amounted to 4.
For `CC1CCC2(CC1)NC(=O)N(CN1CCN(Cc3ccc(Cl)s3)CC1)C2=O` (configuration not stated), the “% Inhibition” value is given as -12% and the Z score is recorded as 2.32.
For `COc1cn(CC(=O)NC2CCN(C(=O)c3cc4ccccc4[nH]3)CC2)c(C)cc1=O`, the “% Inhibition” value came out at 5% and the Z score was -0.62.
